This is an account of results in paper PMC4336329 (PLoS ONE, 2015).

Hit rate of the full screen: of about 310,000 compounds, about 14,000 (4.5%) showed an effect of 50% or more. Effects have a minus sign here. The list shows a part of the results.
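Further: peak tail current of the secondary pulse compared with the same well before compound.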

human ether-à-go-go-related gene (hERG) potassium channel, sequence (Q12809 whole entry, looked up): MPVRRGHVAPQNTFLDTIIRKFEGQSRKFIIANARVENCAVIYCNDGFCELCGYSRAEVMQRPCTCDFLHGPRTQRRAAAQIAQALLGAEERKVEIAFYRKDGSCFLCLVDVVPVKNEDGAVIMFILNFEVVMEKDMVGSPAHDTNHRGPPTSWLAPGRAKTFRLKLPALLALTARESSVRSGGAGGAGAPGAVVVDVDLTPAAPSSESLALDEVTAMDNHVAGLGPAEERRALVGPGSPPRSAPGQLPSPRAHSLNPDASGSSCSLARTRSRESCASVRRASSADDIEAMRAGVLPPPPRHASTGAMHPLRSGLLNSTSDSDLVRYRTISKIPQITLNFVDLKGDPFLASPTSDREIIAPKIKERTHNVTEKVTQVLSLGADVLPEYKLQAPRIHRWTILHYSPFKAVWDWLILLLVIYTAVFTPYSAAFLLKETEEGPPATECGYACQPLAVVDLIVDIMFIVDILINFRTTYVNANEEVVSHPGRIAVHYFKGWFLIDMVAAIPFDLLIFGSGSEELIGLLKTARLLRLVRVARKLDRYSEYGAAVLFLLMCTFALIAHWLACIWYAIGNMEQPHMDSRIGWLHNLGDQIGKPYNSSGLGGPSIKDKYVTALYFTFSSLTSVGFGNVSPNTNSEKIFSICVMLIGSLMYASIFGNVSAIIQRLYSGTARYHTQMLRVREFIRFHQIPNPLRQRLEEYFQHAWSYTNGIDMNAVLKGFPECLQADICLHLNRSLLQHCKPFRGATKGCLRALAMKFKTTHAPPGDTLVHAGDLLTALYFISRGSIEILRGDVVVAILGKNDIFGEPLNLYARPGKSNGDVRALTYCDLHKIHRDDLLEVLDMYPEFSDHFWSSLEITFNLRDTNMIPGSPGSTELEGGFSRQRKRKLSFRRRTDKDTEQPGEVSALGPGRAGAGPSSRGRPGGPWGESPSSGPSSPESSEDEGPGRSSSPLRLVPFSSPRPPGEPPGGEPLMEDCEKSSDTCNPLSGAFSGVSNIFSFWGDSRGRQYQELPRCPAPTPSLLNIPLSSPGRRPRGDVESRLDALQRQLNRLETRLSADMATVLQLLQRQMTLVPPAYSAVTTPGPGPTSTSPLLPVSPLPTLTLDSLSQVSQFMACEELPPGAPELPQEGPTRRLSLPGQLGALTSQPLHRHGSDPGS

This test addresses human ether-à-go-go-related gene (hERG) potassium channel (human, UniProt Q12809). The experiment in a line: primary screen, population patch clamp on CHO cells stably expressing hERG.
With `CCCc1nnc(SCC(=O)N2CCOCC2)n1Cc1ccco1`, the “hERG current change (%, negative = inhibition) at 10uM” value was 7.39%.
For `CC1CCN(c2c(NCc3ccc(C(=O)NCc4cccnc4)cc3)c(=O)c2=O)CC1`, the “hERG current change (%, negative = inhibition) at 10uM” value is given as 2.62%.
Next, `COc1ccc(C2Nc3ccc4ccccc4c3-c3c2c(=O)oc2ccccc32)cc1` (stereo not drawn): 2.54%.
Next, `COc1ccc(C(=O)NC(=S)Nc2cccc3ncccc23)cc1[N+](=O)[O-]`: 10.4%; `COCCCC1CCN(C(=O)C2CCC(=O)N(CC3CCCCC3)C2)CC1` (stereo not drawn): -5.37%; `CC1C/C(=N/N2C(=O)CSC2=S)CC(C)(C)C1` (stereo not drawn): 14.4%.
Turning to `NC(=O)c1cc(S(=O)(=O)N2CCc3ccccc3C2)cs1`, the “hERG current change (%, negative = inhibition) at 10uM” value was found to be 18%.
With `N#Cc1ccc(Cn2c(=O)oc3ccccc32)cc1`, the “hERG current change (%, negative = inhibition) at 10uM” value is -40.6%.
As for `Cc1ccc(CCNC(=O)c2coc3nc4ccccc4nc23)cc1`, the “hERG current change (%, negative = inhibition) at 10uM” value was -1.66%.
Next, `CC(NC(=O)CCC1COc2ccccc2O1)c1ccccc1` (stereo not drawn): 5.24%; `CC1(C)CC(NC(=O)c2cc(S(=O)(=O)N3CCOCC3)c(Cl)cc2Cl)CC(C)(C)N1`: -0.662%; `Cc1cc(=O)oc2cc(OCC(=O)N/N=C/c3cc([N+](=O)[O-])ccc3O)ccc12`: 13.3%.
Next, `CCCC(CCC)=NNc1ccc(S(=O)(=O)Nc2ccccc2OC)cc1[N+](=O)[O-]`: 13.1%; `CCOCCCn1c(SCC(=O)Nc2ccccc2)nc2ccccc2c1=O`: -29.4%; `COc1ccc(N2C(=O)CSC23CCCCC3)cc1`: 10.6%.
For `Cc1cc(OCCn2cnc3ccccc3c2=O)ccc1[N+](=O)[O-]`, the “hERG current change (%, negative = inhibition) at 10uM” value is given as -12.4%.
Take `O=C(NCc1cccnc1)C(=O)NCC(c1ccco1)N1CCN(c2ccccc2)CC1` (stereo not drawn): the “hERG current change (%, negative = inhibition) at 10uM” value worked out at 1.2%.
Next, `O=C(Nc1ccccc1)[C@@H]1[C@@H]2C(=O)N(c3ccc(F)cc3)C(=O)[C@@H]2[C@H]2C=CC=NN21`: -1.2%.
Next, `CSc1nncn1/N=C/c1ccc2c(c1)OCO2`: 15%.
As to `CCOC(=O)C(CC)/C(C)=N\NC(=O)c1ccccc1O` (stereo not drawn), the “hERG current change (%, negative = inhibition) at 10uM” value is 11.7%.
Next, `COc1ccc(C(=O)N2CCC3(CC2)NCCc2[nH]cnc23)cc1OC`: 31.7%; `CCCCOc1ccc(C(=O)OC(C)CN(C)C)cc1.Cl` (stereo not drawn): -19.2%.
In the case of `CCOC(=O)C1(CCOc2ccccc2)CCN(Cc2ccc(OCCO)cc2)CC1`, the “hERG current change (%, negative = inhibition) at 10uM” value is on record as -77.9%.
Next, `O=S(=O)(c1cccc2nsnc12)N1CCN(C/C=C/c2ccccc2)CC1`: -47.6%.
As for `CCOc1cc(/C=N/NC(=O)c2ccc3c(c2)OCCO3)cc(Br)c1O`, the “hERG current change (%, negative = inhibition) at 10uM” value was 5.6%.
Next, `O=S(=O)(c1cccc2nsnc12)N1CCN(C/C=C\c2ccccc2)CC1`: -46.6%; `CC(C)NS(=O)(=O)c1ccc(OCC(=O)NCc2cccnc2)cc1`: -5.7%.
Next, `CC1=C(/C=C/c2ccccc2)CCN(C)C1.Cl`: -24.6%; `Cl.NCC1CCC(C(=O)Oc2ccc(CCC(=O)O)cc2)CC1` (stereo not drawn): 19.4%.
As to `O=C(CCl)Nc1nccs1`, the “hERG current change (%, negative = inhibition) at 10uM” value worked out at 6.62%.
As to `Cc1ccc(N2C(=O)CC(NCC3CCCO3)C2=O)cc1` (stereo not drawn), the “hERG current change (%, negative = inhibition) at 10uM” value is given as 46.9%.
Next, `C(=N\Nc1nc(Nc2ccccc2)nc(N2CCOCC2)n1)/c1c[nH]c2ccccc12`: 0.207%; `CC1=C(C)CC(C(=O)N2CCN(Cc3ccc4c(c3)OCO4)CC2)C(C(=O)O)C1` (stereo not drawn): 21.4%; `Cc1ccc(CNC(=O)c2ccc(CNS(=O)(=O)c3ccc4c(c3)C(C)(C)C(=O)N4C)cc2)o1`: -7.71%.
On to `C/C(=N/NC(=O)c1ccoc1C)C12CC3CC(CC(C3)C1)C2`, for which the “hERG current change (%, negative = inhibition) at 10uM” value was 11.5%.
For the compound `COc1cc([N+](=O)[O-])ccc1NC(=O)CC1SC(=Nc2ccc(F)cc2)N(CCC2=CCCCC2)C1=O` (stereo not drawn), the “hERG current change (%, negative = inhibition) at 10uM” value is -0.932%.
Next, `Cc1cc(C)cc(NC(=O)c2ccccc2NC(=O)CCC(=O)O)c1`: 6.52%; `Cc1ccc2[nH]c(C(=O)NCCN3CCCC3)cc2c1.Cl`: -30.1%.
Next, `CCOc1ccc(Cn2nnc(C(=O)Nc3cc(C)cc(C)c3)c2N)cc1`: 7.96%.
Next, `c1ccc(-n2nnnc2Oc2ccc(-c3nnco3)cc2)cc1`: -26.8%; `C=CCNC(=O)/C(C#N)=C/c1ccccc1Cl`: 16.4%.
As for `Cc1ccccc1S(=O)(=O)NCC1CCCO1` (stereo not drawn), the “hERG current change (%, negative = inhibition) at 10uM” value is 17.1%.
`Nc1nc(N)c2nc(-c3ccccc3)c(N)nc2n1`: the “hERG current change (%, negative = inhibition) at 10uM” value is -8.79%.
Next, `CN(CCNC(=O)C1CC(=O)N(C2CCCC2)C1)Cc1ccccc1` (stereo not drawn): -1.99%; `O=C(NCc1ccco1)c1ccc(NS(=O)(=O)c2cccc(F)c2)cc1`: 2.54%.
